In the supplement of paper PMC11417369:
The other results are listed elsewhere or left out.

test system: PfSIP2 AP2 domain 1 (GST-tagged); experiment: gcPBM binding intensity (ln(normalized median fluorescence intensity)); higher = stronger DNA binding
How it was run: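 In this array assay, P. falciparum DNA-binding domains with a GST tag, expressed in E. coli, were applied for 1 h to primer-extended double-stranded 36-bp intergenic genomic probes and negative controls on an Agilent 4 × 180k array. Bound protein was visualised with Alexa488 anti-GST antibody at 488 nm. Binding intensity is the highest Masliner-normalised natural-log median intensity across replicate spots of either probe orientation.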

Row | Sequence | gcPBM binding intensity (ln)
1 | AACAAATATATTAACACACAAACATATAAACCAATG [CACACA_site3970] | 7.19
2 | TATATATTATATATATGTACATACTTTTTACGTTCA [XGTACX_site2493] | 7.12
3 | AAATTAATTAAATATACACACATATATAGATATATA [CACACA_site6321] | 6.86
4 | ACCACATTTTTTTTTGCATGTTGTTTAAAAAAAGGC [TGCATGCA_site137] | 7.16
5 | TATATATAATATATATGTACATAATATATTTTATAT [XGTACX_site2909] | 7.48
6 | TAAAACACTCATGGCACACATAAAACATTTTTATGA [CACACA_site3574] | 7.11
7 | TATAAAAAATAATTATCATGAAATATATGATCATCA [TGCATGCA_negctrl_site137] | 6.63
8 | ATTATTATTTATATGATACACACGTACATATACGCA [CACACA_site3823] | 7.04
9 | TTAAAAAAAATATAATGTACTTGTAGAATTATATTT [XGTACX_site6220] | 6.73
10 | TATATTTTTTATAAATGTACATGGATAGGCATAAAC [XGTACX_site8401] | 7.42
11 | TCAAAAATGAGTTACACACACACATATATATATATA [CACACA_site2229] | 9.58
12 | ATATGAATAAATAAAAGTACATACATAATGTATTAT [XGTACX_site5969] | 6.99
13 | AGTATATAAAATACTGTATCGATGGGGGAGGGCGCA [CACACA_negctrl_site1612] | 8.06
14 | ACAAATAAATAAAAAACACACACAAATAAATAAATA [CACACA_site8708] | 6.81
15 | TAATAATAAAATATTTGTACATATAAAATATGGCTG [XGTACX_site7904] | 6.97
16 | AATATAATGCAATATACACACATATATTTCTCTTTT [CACACA_site7276] | 6.94
17 | AATTTTTTTCTCCAAGTGCATTAGAACATTAACGTA [GTGCAC_site9413] | 8.28
18 | ATATATTTATGTATCACACACAAAAAAAAAAAATAA [CACACA_site255] | 6.94
19 | TCCTTATTTTGCAGGAGTACCATTTTTTAAAAATAC [XGTACX_site5968] | 7.26
20 | ACAATTACTTATTTTAATTTTTTTAATCTATTGATT [CACACA_negctrl_site967] | 6.75
21 | AATAACAATTATAAAAGTACAGATTTTTATTTCTAA [XGTACX_site5746] | 6.82
22 | TTTTTTTTGTTATGAACATGCAAATTAAAATATAAT [TGCATGCA_site954] | 6.96

Row | Sequence | gcPBM binding intensity (ln)
23 | TACTTTTCTTAAAGATGTACGTTTTAAAAATAAAAT [XGTACX_site14] | 7.39
24 | CAACAATTTCGTCATACACACATTCAGAATATATAT [CACACA_site2370] | 6.99
25 | TAAATACATAAAAATTGTACACATTGTTTTCTCTTT [XGTACX_site6435] | 6.71
26 | AAGGAAATAATTAAATGTACAAAAAAAAAAAAAATT [XGTACX_site562] | 6.71
27 | TACAAACAAACACATAGCAATATATGTTATCAAAAA [XGTACX_negctrl_site1] | 6.85
28 | ATATTTTTTTTTCTTTCGCACACGTGAAAGAATTTC [CACACA_site8636] | 7.29
29 | TTTTATGCTCAATTATTAAGAAATACTTTTTCTTCC [XGTACX_negctrl_site208] | 6.68
30 | AAAATAAAAATTAACTGTACATACATTATTCAAATT [XGTACX_site6106] | 6.67
31 | AGAAGTTTATCTTTTAGTACGCATAAAAAAAAAAAA [XGTACX_site2359] | 6.9
32 | TATAAATAATTATATTGTACTCTTTATATTTTTCTT [XGTACX_site5335] | 6.98
33 | TTAAATAGCTGTAATTGTACAAATAAATACATAAAT [XGTACX_site3097] | 6.96
34 | TATAGTAATATTTGAAGTACAAAATTAAAATAAATA [XGTACX_site7634] | 6.82
35 | TTATATAAGGTCTATATATAAATATTAATGATAAGG [TGCATGCA_negctrl_site354] | 6.81
36 | TAAATATATATATGGTGTACCATTTTGGGTTAATAT [XGTACX_site2706] | 7.02
37 | GGGAGGATATTTCACAGTACCCAGGAAATCTGCGGA [XGTACX_site2555] | 6.9
38 | TTAATATTTTGATGTGTACACATTAAAATAGTTTTA [CACACA_site5712] | 7.02
39 | TATATTATTTTTTATTGTACTTAAAAATATTATTTG [XGTACX_site1443] | 7.03
40 | TTTTTGTTAATAAGTATGCACTATCTCATTTTTGTA | 8.48
41 | ATATATTTTGGGGACTTTTTAAAAAAGAAGTATTAA [TGCATGCA_negctrl_site337] | 7.23
42 | TAGAAAAAAATAGATGCATGCAATGAATGAATAATA [TGCATGCA_site14] | 7.48
43 | TTTCTATTACGAACGTGTACATACATTATTCTTAAA [XGTACX_site5816] | 7.25
44 | CTATACTATGAAAAGTGTACGAATAGCTAGCTATTT [XGTACX_site5927] | 6.88
